The whole screen tested about 310,000 compounds, of which about 14,000 (4.5%) showed an effect of 50% or more. Effects have a minus sign here. Some of the results follow.
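Note: peak tail current of the secondary pulse compared with the same well before compound.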

The target of this experiment is human ether-à-go-go-related gene (hERG) potassium channel (human, UniProt Q12809). Kind of experiment: primary screen, population patch clamp on CHO cells stably expressing hERG.
Sequence of human ether-à-go-go-related gene (hERG) potassium channel (Q12809 whole entry, looked up): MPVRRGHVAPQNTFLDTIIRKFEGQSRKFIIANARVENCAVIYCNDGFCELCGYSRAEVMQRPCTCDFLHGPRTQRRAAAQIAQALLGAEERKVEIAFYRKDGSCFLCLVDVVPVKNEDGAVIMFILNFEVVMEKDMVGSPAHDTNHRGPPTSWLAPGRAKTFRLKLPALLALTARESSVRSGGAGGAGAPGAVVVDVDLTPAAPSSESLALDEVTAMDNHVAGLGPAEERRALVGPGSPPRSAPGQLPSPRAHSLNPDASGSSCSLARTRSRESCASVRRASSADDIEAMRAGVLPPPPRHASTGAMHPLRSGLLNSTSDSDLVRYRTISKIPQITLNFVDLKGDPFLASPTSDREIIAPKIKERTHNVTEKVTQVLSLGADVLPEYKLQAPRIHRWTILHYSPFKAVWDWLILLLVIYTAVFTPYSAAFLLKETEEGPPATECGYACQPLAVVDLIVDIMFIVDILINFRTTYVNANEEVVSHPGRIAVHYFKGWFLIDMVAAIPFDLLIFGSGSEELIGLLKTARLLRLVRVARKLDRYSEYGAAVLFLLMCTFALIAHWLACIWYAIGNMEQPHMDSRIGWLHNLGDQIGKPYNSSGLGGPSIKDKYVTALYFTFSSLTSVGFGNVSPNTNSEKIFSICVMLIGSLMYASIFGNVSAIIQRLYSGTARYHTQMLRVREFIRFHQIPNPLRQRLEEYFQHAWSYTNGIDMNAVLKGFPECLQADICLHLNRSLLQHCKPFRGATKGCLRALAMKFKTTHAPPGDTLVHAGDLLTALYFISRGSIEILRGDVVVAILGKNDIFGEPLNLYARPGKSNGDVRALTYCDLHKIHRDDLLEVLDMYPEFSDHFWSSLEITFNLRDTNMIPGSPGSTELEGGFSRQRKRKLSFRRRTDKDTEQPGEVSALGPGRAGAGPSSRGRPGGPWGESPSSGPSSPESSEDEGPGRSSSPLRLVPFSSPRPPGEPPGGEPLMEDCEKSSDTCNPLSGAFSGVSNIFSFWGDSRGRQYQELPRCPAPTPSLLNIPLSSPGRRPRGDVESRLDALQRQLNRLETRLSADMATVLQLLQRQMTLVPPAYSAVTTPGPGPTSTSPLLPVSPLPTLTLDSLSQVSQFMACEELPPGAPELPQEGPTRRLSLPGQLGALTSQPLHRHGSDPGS
For the molecule `CCS(=O)(=O)Nc1ccc(-c2nnc(SCC(=O)c3ccc(NC(C)=O)c(OC)c3)o2)cc1`, the “hERG current change (%, negative = inhibition) at 10uM” value was -23.8%.

Turning to `COc1cccc(NC(=O)c2nn(C)c3c2CS(=O)(=O)c2ccccc2-3)c1`, the “hERG current change (%, negative = inhibition) at 10uM” value was 8.68%.

On to `O=C1CCCc2oc3c(cc(NS(=O)(=O)c4ccc5c6c(cccc46)C(=O)N5)c4ccccc43)c21`, for which the “hERG current change (%, negative = inhibition) at 10uM” value is listed as -10%.

Take `O=C(c1cccc(F)c1)N1CCc2ccccc21`: the “hERG current change (%, negative = inhibition) at 10uM” value is given as -12.5%.

With `C=CCC(NCc1ccccc1)c1ccc(Cl)cc1` (stereo not shown), the “hERG current change (%, negative = inhibition) at 10uM” value came out at 0.909%.

For `O=C(CNC(=O)c1ccc(F)cc1)c1ccc(Cl)cc1`, the “hERG current change (%, negative = inhibition) at 10uM” value is 17%.

`CCCCN(C(=O)c1c(CC)noc1C)c1c(N)n(CC(C)C)c(=O)[nH]c1=O`: the “hERG current change (%, negative = inhibition) at 10uM” value came out at 0.124%.

For `O=C(CSC1CC(=O)N(CCc2ccccc2)C1=O)Nc1ccc(Br)cc1` (stereo not shown), the “hERG current change (%, negative = inhibition) at 10uM” value is -12.9%.

`Cc1cccc(CS(=O)(=O)c2ncc(Cl)c(C(=O)NCc3ccccc3)n2)c1`: the “hERG current change (%, negative = inhibition) at 10uM” value is 5.6%.

Take `CC(=O)c1ccc(NC(=S)N2CCN(c3ccccn3)CC2)cc1`: the “hERG current change (%, negative = inhibition) at 10uM” value worked out at 9.47%.

As to `COc1ccc(Cl)cc1N1C(=O)CC(Sc2ccccc2N)C1=O` (stereo not shown), the “hERG current change (%, negative = inhibition) at 10uM” value is 0.15%.

Regarding `CC(C)(C)C(=O)Nc1ccccc1C(=O)N1CCCC1`, the “hERG current change (%, negative = inhibition) at 10uM” value came out at 18.7%.

Consider `Cc1ccc(CNC(=O)c2cc(-c3ccccc3C)n(CC3CC(c4cccc([N+](=O)[O-])c4)=NO3)n2)cc1` (stereo not shown), for which the “hERG current change (%, negative = inhibition) at 10uM” value turned out to be 13.6%.

With `COc1cc(OC)cc(OC(=O)C2CCN(S(=O)(=O)c3ccc(OC)c(OC)c3)CC2)c1`, the “hERG current change (%, negative = inhibition) at 10uM” value is given as 3.39%.

`Cc1ccccc1NC(=O)c1ccc(F)c(S(=O)(=O)N2CCCCC2)c1`: the “hERG current change (%, negative = inhibition) at 10uM” value is 20.4%.

With `C=CCn1c(SCC(=O)Nc2ccc(F)cc2F)nnc1-c1cnccn1`, the “hERG current change (%, negative = inhibition) at 10uM” value is on record as -58.8%.

For the molecule `CSc1ccc(/C=C(\C#N)C(=O)NC2CCCCC2C)cc1` (stereo not shown), the “hERG current change (%, negative = inhibition) at 10uM” value is reported as -21.7%.

As for `CCOC(=O)Cc1csc(NC(=O)CC(C)(C)C)n1`, the “hERG current change (%, negative = inhibition) at 10uM” value came to 9.76%.

Turning to `COc1cc(Cl)c(NS(=O)(=O)c2cc3[nH]c(=O)c(=O)[nH]c3cc2C)c(OC)c1`, the “hERG current change (%, negative = inhibition) at 10uM” value is on record as 12.4%.

On to `CCOC(=O)C1CCCN(c2nc3ccccc3nc2C(C#N)C(=O)OC(C)COC)C1` (stereo not shown), for which the “hERG current change (%, negative = inhibition) at 10uM” value is given as -55.2%.

`CCO[C@H]1OC(C(=O)N2CCOCC2)=C[C@@H](C)[C@@H]1CCCO`: the “hERG current change (%, negative = inhibition) at 10uM” value stood at 12.5%.

`COc1ccc(-n2cc(CNC(C)c3ccncn3)c(-c3cccc(F)c3)n2)cc1` (stereo not shown): the “hERG current change (%, negative = inhibition) at 10uM” value is recorded as -59.4%.

`CC1CCCC(NC(=O)COC(=O)Cc2ccc(Br)cc2)C1C` (stereo not shown): the “hERG current change (%, negative = inhibition) at 10uM” value turned out to be 17.9%.

`Cc1c(C(=O)N2CCC(C)CC2)cccc1[N+](=O)[O-]`: the “hERG current change (%, negative = inhibition) at 10uM” value stood at 26.1%.

On to `Cc1ccc(C2(C)NC(=O)N(CC(=O)NNC(=O)c3ccccc3F)C2=O)cc1` (stereo not shown), for which the “hERG current change (%, negative = inhibition) at 10uM” value was -5.29%.

Turning to `CCOC(=O)C1=C(C)NC(=O)CC1c1ccccc1OC` (stereo not shown), the “hERG current change (%, negative = inhibition) at 10uM” value is 7.62%.

As for `CN(C)c1ccc(C(=O)OCc2ccccc2)cc1`, the “hERG current change (%, negative = inhibition) at 10uM” value was determined as 17.3%.

In the case of `COc1ccccc1NC(=O)Cn1c(=O)oc2cc(S(=O)(=O)N3CCCC3)ccc21`, the “hERG current change (%, negative = inhibition) at 10uM” value amounted to 16.6%.

With `N#Cc1c(Cl)cccc1-n1ccnc1`, the “hERG current change (%, negative = inhibition) at 10uM” value is recorded as 3.7%.

As for `COc1cccc2[nH]c(=O)c(-c3ccccc3)cc12`, the “hERG current change (%, negative = inhibition) at 10uM” value is reported as 6.1%.

For `CC(C)c1ccccc1NC(=O)CC1(CC(=O)O)CCCC1`, the “hERG current change (%, negative = inhibition) at 10uM” value is listed as -2.8%.

Turning to `CCc1cc(C)cc(OCCOc2ccccc2/C=N/NC(C)=O)c1`, the “hERG current change (%, negative = inhibition) at 10uM” value was 11.6%.

With `COc1cccc(OCC(=O)O/N=C(\N)c2ccc(OC)c(OC)c2)c1`, the “hERG current change (%, negative = inhibition) at 10uM” value was -3.46%.

For `CC(=O)C1=C(O)C(=O)N(CCN2CCOCC2)C1c1ccc(N(C)C)cc1.Cl` (stereo not shown), the “hERG current change (%, negative = inhibition) at 10uM” value is reported as 3.73%.

On to `CCOCCCn1c(SCC(=O)Nc2cc(C(C)(C)C)nn2-c2ccccc2)nc2ccccc2c1=O`, for which the “hERG current change (%, negative = inhibition) at 10uM” value is given as -43.3%.

Regarding `O=C1Nc2ccc(S(=O)(=O)NCc3ccco3)c3cccc1c23`, the “hERG current change (%, negative = inhibition) at 10uM” value is -16.2%.

As for `CC1=CC2=NC(=O)/C(=C\c3cc(C)n(-c4ccccc4F)c3C)C(=N)N2O1`, the “hERG current change (%, negative = inhibition) at 10uM” value is given as -4.59%.

As for `CN(C)CC(NC(=O)c1cccc(S(=O)(=O)Nc2ccc3c(c2)OCO3)c1)c1ccccc1` (stereo not shown), the “hERG current change (%, negative = inhibition) at 10uM” value is -14.8%.

As to `COc1ccccc1Nc1nc(C)cc(C)c1C(N)=O`, the “hERG current change (%, negative = inhibition) at 10uM” value is given as 1.92%.

Regarding `CCN(CC)c1ccc2cc(C(=O)Nc3ccccn3)c(=O)oc2c1`, the “hERG current change (%, negative = inhibition) at 10uM” value came out at 12.1%.

Regarding `COc1ccc(-c2cc(C(=O)NCc3cccnc3)no2)cc1`, the “hERG current change (%, negative = inhibition) at 10uM” value is -13.5%.

Turning to `Cc1cc(C(=O)COC(=O)c2ccc[nH]c2=O)c(C)n1-c1ccc(Br)cc1`, the “hERG current change (%, negative = inhibition) at 10uM” value is on record as 1.63%.

On to `CC1(C)CC(NC(=O)CCc2ccccc2)CC(C)(C)N1.Cl`, for which the “hERG current change (%, negative = inhibition) at 10uM” value amounted to 2.05%.

Take `Cc1ccccc1N(C(=O)Cn1nnc2ccccc21)C(C(=O)NCc1ccco1)c1ccncc1` (stereo not shown): the “hERG current change (%, negative = inhibition) at 10uM” value was -4.4%.

`CC(Sc1nnc(C2CC2)n1C1CC1)C(=O)Nc1cccc(S(=O)(=O)N(C)C)c1` (stereo not shown): the “hERG current change (%, negative = inhibition) at 10uM” value is reported as -19.5%.

`COc1ccc(CNC(=O)COC(=O)CCc2c[nH]c3ccccc23)cc1`: the “hERG current change (%, negative = inhibition) at 10uM” value was 35.6%.

For `Cc1nc(Nc2nc(CSc3nc4ccccc4[nH]3)cc(=O)[nH]2)nc2ccccc12`, the “hERG current change (%, negative = inhibition) at 10uM” value is -1.19%.

As to `COc1cccc(NC(C)C(=O)Nc2cc([N+](=O)[O-])ccc2Cl)c1` (stereo not shown), the “hERG current change (%, negative = inhibition) at 10uM” value is given as 1.44%.

With `O=C(Nc1ccc(N2CCCCC2)cc1)c1ccc2c(c1)OCCO2`, the “hERG current change (%, negative = inhibition) at 10uM” value was -4.14%.

Consider `C/C(=N\O)C1/C(=N/O)CC2C1C2(C)C` (stereo not shown), for which the “hERG current change (%, negative = inhibition) at 10uM” value was -0.279%.

Take `O=C(O)c1cncc(C#CCC2CCCCC2)c1`: the “hERG current change (%, negative = inhibition) at 10uM” value was -0.778%.

In the case of `CC(=O)c1ccc(NC(=O)c2ccccc2Sc2ncnc3sc(C)c(C)c23)cc1`, the “hERG current change (%, negative = inhibition) at 10uM” value is on record as -24.9%.

On to `CCOc1cc(C(=O)NC)cc(Br)c1OCc1ccccc1`, for which the “hERG current change (%, negative = inhibition) at 10uM” value is reported as 5.9%.

Regarding `COc1ccc(CN(CC(=O)NCc2ccc(F)cc2)C(=O)CCC(=O)Nc2cc(C)ccn2)cc1`, the “hERG current change (%, negative = inhibition) at 10uM” value is given as -27.4%.

With `CCCCOc1ccc(C(C)=O)cc1Cc1c(O)[nH]c(=S)[nH]c1=O`, the “hERG current change (%, negative = inhibition) at 10uM” value is given as 14.7%.

Values taken from publication PMC4336329 (PLoS ONE, 2015).
